The results in this text go back to paper PMC8326117 (International Journal of Biological Sciences, 2021).

For one test, the system named is SARS-CoV-2 S-protein. The format is binding.
Test [1] concerns SARS-CoV-2 nucleocapsid protein (N-protein). The format is binding.

No end group written: not given here.

In the case of “Biotinylated AYn1 (KKKKKKDKFNHEAEDLFY; also: biotinylated)”, the “protein-peptide interaction in pull-down” value in the test with SARS-CoV-2 S-protein was “strong protein-peptide interaction was observed in AYn1-immobilized condition”.

For the substance KKKKKKDKFNHEAEDLFY [AYn1], the “binding to N-protein” value in test [1] was “no affinity to virus nucleocapsid protein (N-protein)”.
